The values that follow come from PubChem BioAssay AID1460 (National Center for Advancing Translational Sciences (NCATS), 2008).

Out of some 270,000 compounds screened, about 5,800 (2.1%) were called active. Roughly 16% stayed inconclusive and do not appear here. Calls follow the shape of the dose curve; as a rule, active = well fitted inhibition curve with a large enough effect; inconclusive = small, poorly fitted or top-dose-only effect; inactive = flat fitted curve, though single readings scatter. This is a selection; strong and weak results do not stand in their true shares. Some compounds were tested as several samples or in several runs, with calls that do not always agree.
% is scaled to controls: 0 for no effect and ±100 for the full control effect; potency is read from the fitted curve at half-maximal effect.

For this test, the target named is Microtubule-associated protein tau (Homo sapiens) (UniProt P10636). As to the kind of experiment: qHTS for Inhibitors of Tau Fibril Formation, Thioflavin T Binding. Also: nearly all actives have a fitted effect of over 55% in size. The following applies: recombinant tau K18 P301L, heparin-induced fibrillization, ThT fluorescence; series mostly up to 57.4 µM; activity, negative = inhibition: at the top concentration. The procedure, abridged: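 ThT emission at 510 nm, taken 1 hr after adding 30 uM dye, quantifies aggregates formed when 20 uM heparin acts on human tau K18 P301L for 6 hr at 37 C.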
UniProt P10636, sequence (P10636 whole entry, looked up): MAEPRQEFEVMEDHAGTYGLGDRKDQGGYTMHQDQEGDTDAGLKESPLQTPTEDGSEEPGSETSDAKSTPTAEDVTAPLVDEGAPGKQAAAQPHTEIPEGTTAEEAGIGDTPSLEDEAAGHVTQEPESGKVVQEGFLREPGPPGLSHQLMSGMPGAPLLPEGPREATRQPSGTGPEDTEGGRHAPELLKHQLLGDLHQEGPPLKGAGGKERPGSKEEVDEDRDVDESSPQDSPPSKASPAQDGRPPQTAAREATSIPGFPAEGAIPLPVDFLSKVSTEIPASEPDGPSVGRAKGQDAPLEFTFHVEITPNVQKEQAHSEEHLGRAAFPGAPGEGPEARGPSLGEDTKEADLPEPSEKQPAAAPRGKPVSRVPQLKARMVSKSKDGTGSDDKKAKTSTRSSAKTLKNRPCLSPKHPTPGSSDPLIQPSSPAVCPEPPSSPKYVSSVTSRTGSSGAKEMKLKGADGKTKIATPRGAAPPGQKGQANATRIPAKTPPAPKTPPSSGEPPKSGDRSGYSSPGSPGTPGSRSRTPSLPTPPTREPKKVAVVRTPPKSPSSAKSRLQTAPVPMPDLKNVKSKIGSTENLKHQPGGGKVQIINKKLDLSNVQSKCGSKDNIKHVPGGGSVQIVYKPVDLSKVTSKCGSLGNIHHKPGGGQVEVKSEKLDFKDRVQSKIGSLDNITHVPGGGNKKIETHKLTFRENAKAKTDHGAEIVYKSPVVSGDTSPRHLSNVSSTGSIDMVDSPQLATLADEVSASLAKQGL
On the technique in general: Quantitative high-throughput screening tests each substance at several concentrations.
For the molecule `O=C(Nc1ccc(F)cc1)C1=CC(=O)N2CCN=C2S1`, the Potency is active: 17.8 µM.

Consider `O=C(NCCCO)/C(=C/c1ccco1)NC(=O)c1ccc(Br)o1`, for which the “activity, negative = inhibition” value is inactive: -14.7%.

For `Cc1c(OCc2ccccc2)cccc1OCc1ccccc1`, the activity, negative = inhibition is inactive: -10.1% [at 11.5 µM].

With `COc1cccc([C@@H]2Oc3ccc(OC)cc3C(=O)[C@H]2OC(=O)NCc2ccc3c(c2)OCO3)c1`, the “activity, negative = inhibition” value was inactive: -13%.

With `[C-]#[N+]/C(C#N)=C\c1cc(C(C)(C)C)c(O)c(C(C)(C)C)c1`, the Potency was active: 25.1 µM.

Consider `COc1ccc(C2=CSC3=C(C(=O)c4cccc(S(=O)(=O)N(C)C)c4)CCN23)cc1`, for which the Potency was active: 25.1 µM.

Turning to `O=C(c1ccccc1)c1c2c(cc3sc4ccccc4[n+]13)-c1cccc3cccc-2c13`, the Potency is active: 6.31 µM.

With `CC12C(=O)OC(=O)C1(C)C1CCC2O1` (centres undefined), the Potency result is “inactive”.

On to `O=C(c1ccc(F)cc1)C1CCN(CCn2c(=O)[nH]c3ccccc3c2=O)CC1`, for which the Potency entry was “inactive”.

In the case of `Cc1ccccc1N=Nc1c(C)[nH]n(C(N)=S)c1=O`, the Potency is active: 14.1 µM.

With `CC(=O)N[C@@H](CSC/C=C(\C)CC/C=C(\C)CCC=C(C)C)C(=O)O`, the Potency result is “inactive”.

Regarding `Cc1cc(O)c(NC(=S)NC(=O)c2ccc(-c3ccc(Cl)cc3)o2)cc1C`, the Potency is active: 11.2 µM.

In the case of `C[C@@](Cc1ccc(O)c(O)c1)(NN)C(=O)O`, the “activity, negative = inhibition” value is inactive: -8.44%.

Regarding `Cc1cc(C)n2c(Nc3ccc4c(c3)OCCO4)c(-c3ccccc3)nc2n1`, the “activity, negative = inhibition” value is inactive: -15%.

Turning to `CC1=C(C)/C(=N\OS(=O)(=O)c2ccccc2)C=CC1=O`, the Potency is active: 12.6 µM.

For the molecule `CN1C[C@@H]2C(c3ccc(C(F)(F)F)cc3)C3(c4ccccc4)CC2(C3)[C@H]1c1ccccc1` (some centres undefined), the “activity, negative = inhibition” value is inactive: -9.12%.

For `O=C(NCc1nc2ccccc2[nH]1)C1=C[C@H](c2ccc(Br)cc2)C[C@H](OCc2ccc(CO)cc2)O1`, the “activity, negative = inhibition” value was inactive: -1.59%.

In the case of `COC(=O)C1CCN(C2=C(NS(=O)(=O)c3ccc(Cl)cc3)C(=O)c3ccccc3C2=O)CC1`, the Potency was active: 14.1 µM.

For the molecule `O=C(/C=C/c1ccc(-c2ccccc2)o1)c1ccccc1`, the “activity, negative = inhibition” value was inactive: 5.58%.

For the molecule `CCOc1ccc(NC(=O)CCNS(=O)(=O)c2cccs2)cc1`, the “activity, negative = inhibition” value was inactive: -2.62%.

For the molecule `CNc1nc(N/N=C/c2ccc([N+](=O)[O-])cc2)nc(Nc2ccccc2)n1`, the Potency was active: 3.98 µM.

Regarding `O=C1NC(c2cc(Cl)cc([N+](=O)[O-])c2O)Nc2ccccc21` (centres undefined), the Potency is active: 7.08 µM.

For the molecule `CNCC(O)c1ccc(O)c(O)c1` (centres undefined), the Potency result was “inactive”.

As to `c1cc(CN2CCCCC2)cc(OCCCNc2nc3ccccc3s2)c1`, the Potency result was “inactive”.

`CCc1cc2c(nc1CC)CCN(CC/C(C)=N/O[C@@H](C)c1cc(-c3c(C)cc(C)cc3C)no1)C2`: the activity, negative = inhibition is inactive: -7.72% [at 11.5 µM].

With `N=C(N)SCc1nc2ccccc2c(=O)n1-c1ccccc1`, the “activity, negative = inhibition” value is inactive: 6.05%.

Turning to `Cc1cc(C)c(C(=O)COc2cccnc2[N+](=O)[O-])cc1C`, the Potency is active: 14.1 µM.

With `CCN1/C(=C/c2ccc3cc(C)ccc3[n+]2CC)Sc2cc(C)ccc21`, the Potency is active: 14.1 µM.

In the case of `COC(=O)CCC(=O)OC1(C)C(=O)C=C2C=C(C3CC3)N(c3ccccc3)C=C2C1=O` (centres undefined), the “activity, negative = inhibition” value is inactive: -13.8%.

In the case of `O=C1/C(=C\c2cccnc2)SC(=S)N1c1ccc(F)cc1`, the “activity, negative = inhibition” value is inactive: -9.41%.

On to `S=c1[nH]nc(-c2n[nH]c3c2CCC3)n1/N=C/C=C/c1ccco1`, for which the Potency was active: 22.4 µM.

Turning to `C#CCCOC(=O)N1C2=NC(C(=O)OC)=C(C(=O)OC)[C@@H]3N(C)c4ccccc4[C@]23C[C@H]1C(=O)OC`, the activity, negative = inhibition was inactive: 9.18% [at 11.5 µM].

As for `COC(=O)CCCC1=CC2=C(c3ccccc3)C(=O)C(C)(OC(=O)C3CCCC3)C(=O)C2=CN1Cc1ccc2c(c1)OCO2` (centres undefined), the activity, negative = inhibition was inactive: -0.855% [at 11.5 µM].

In the case of `COc1cc(/C=N\Nc2nc(-c3cccs3)c(NC(C)=O)s2)ccc1O`, the Potency was active: 15.8 µM.

As for `CC(C)Oc1ccc2c(=O)c(-c3ccccc3)coc2c1`, the “activity, negative = inhibition” value was inactive: -20.8%.

`Cc1cccc(C(=O)N2CCC(=O)N([C@H](COCc3cccc(C(F)(F)F)c3)Cc3ccccc3)CC2)c1`: the “activity, negative = inhibition” value is inactive: -20.8%.

As to `CCOC(=O)c1nc(Nc2ccc(C(=O)OC)cc2)c2ccccc2n1`, the “activity, negative = inhibition” value was inactive: 1.23%.

As for `COCCCNC(=O)CCC(=O)NNc1nc2ccccc2c2nc(-c3ccccc3)nn12`, the “activity, negative = inhibition” value is inactive: -3.6%.

As to `CCCCC[C@H](O)/C=C/[C@H]1C(=O)C=C[C@@H]1C/C=C\CCCC(=O)O`, the “activity, negative = inhibition” value is inactive: -16.4%.

Regarding `COc1ccc(Cl)cc1C(=O)NCCc1ccc(S(=O)(=O)NC(=O)NC2CCCCC2)cc1`, the Potency entry is “inactive”.

Regarding `COc1ccc(NC(=O)C2CCCN(S(=O)(=O)c3c(C)[nH]c(=O)[nH]c3=O)C2)cc1Cl` (centres undefined), the “activity, negative = inhibition” value is inactive: -10.1%.

As to `COC(=O)CCC(=O)OC1(C)C(=O)C=C2C=C(C3CC3)N(c3cccc(C#N)c3)C=C2C1=O` (centres undefined), the activity, negative = inhibition is inactive: 11.4% [at 11.5 µM].

With `N#Cc1ccc(C23CC4(C2)[C@H](CN(CC2CCCCC2)[C@@H]4c2ccccc2)C3c2ccccc2)cc1` (some centres undefined), the “activity, negative = inhibition” value is inactive: -0.663%.

On to `O=C(O)CCc1ccc(-c2cccs2)n1CC(=O)Nc1ccccc1C(F)(F)F`, for which the “activity, negative = inhibition” value was inactive: -14.5%.
